According to PubChem BioAssay AID488969 (Vanderbilt High Throughput Screening Facility, 2010):
Whole data set: some 110,000 compounds, median “z-score” near -0.1, cut for the highest 2% near 2. Some of the results follow.

The compounds below were run against Metabotropic glutamate receptor 8 (Rattus norvegicus) (UniProt P70579) (assay: rat mGluR8 modulators via GIRK flux, primary screen, cell-based, thallium flux, HTS (AID 488969)). Conditions: HEK293 rat mGluR8, GIRK (G protein-gated inwardly rectifying potassium channel) thallium flux, FluoZin2; at 10 µM; stronger effect = higher value; submaximal glutamate (EC20) added with thallium.
Sequence of UniProt P70579 (P70579 whole entry, looked up): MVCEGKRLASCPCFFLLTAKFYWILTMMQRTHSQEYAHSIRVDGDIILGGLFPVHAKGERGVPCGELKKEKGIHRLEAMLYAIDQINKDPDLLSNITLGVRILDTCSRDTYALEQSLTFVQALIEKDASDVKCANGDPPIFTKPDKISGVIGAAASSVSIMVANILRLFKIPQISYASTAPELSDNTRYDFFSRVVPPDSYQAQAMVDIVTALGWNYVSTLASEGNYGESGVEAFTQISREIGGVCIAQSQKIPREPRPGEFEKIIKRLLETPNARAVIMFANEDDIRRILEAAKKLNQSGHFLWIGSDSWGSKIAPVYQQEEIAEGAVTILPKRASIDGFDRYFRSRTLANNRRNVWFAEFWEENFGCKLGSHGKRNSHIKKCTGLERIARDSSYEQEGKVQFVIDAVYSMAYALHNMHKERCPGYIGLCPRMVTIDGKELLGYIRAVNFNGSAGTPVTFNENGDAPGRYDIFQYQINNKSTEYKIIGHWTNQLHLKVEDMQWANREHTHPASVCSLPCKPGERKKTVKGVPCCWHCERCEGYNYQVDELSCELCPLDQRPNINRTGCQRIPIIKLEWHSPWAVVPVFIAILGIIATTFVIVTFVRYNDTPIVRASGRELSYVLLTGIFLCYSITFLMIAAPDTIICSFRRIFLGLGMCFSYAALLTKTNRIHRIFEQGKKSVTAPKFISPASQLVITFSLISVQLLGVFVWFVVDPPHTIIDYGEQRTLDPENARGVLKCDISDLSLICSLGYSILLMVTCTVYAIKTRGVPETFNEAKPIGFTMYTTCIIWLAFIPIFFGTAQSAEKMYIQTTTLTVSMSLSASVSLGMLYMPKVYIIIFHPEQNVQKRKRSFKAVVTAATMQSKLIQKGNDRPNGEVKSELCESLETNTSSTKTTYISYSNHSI

Point of comparison: `COc1ccc(-c2noc(CSc3nnc(Cc4ccccc4)n3-c3cccc(C)c3)n2)cc1OC`, z-score 0.642. Against it:
- CCCCC(=O)Nc1ccc(C(=O)Nc2nnc(COC)s2)cc1 — lower, -0.311
- C=CCC(=O)OCC(=O)Nc1ccc(Oc2ccccc2)cc1 — lower, 0.194
- CC1CCC2(CC1)NC(=O)c1ccccc1O2 (stereo not given) — lower, 0.35
- COc1ccc(CC(=O)O/N=C(\N)Cc2ccc(OC)cc2)cc1 — lower, -0.197
- Fc1ccc(CSc2ccc(-c3ccc4c(c3)OCO4)nn2)cc1 — lower, -0.368
- CC(=O)N1CCc2cc(S(=O)(=O)NCCC(=O)Nc3cc(C)cc(C)c3)ccc21 — lower, -0.151
- Nc1c(C(=O)NCc2ccc3c(c2)OCO3)c2nc3ccccc3nc2n1CCCN1CCOCC1 — lower, -0.129
- O=C(c1ccc(S(=O)(=O)NCC2CCCO2)cc1)N1CCc2ccccc21 (stereo not given) — lower, -0.235
- CCCN1CCN(C(c2cc3cc(OCC)ccc3[nH]c2=O)c2nnnn2C2CCCCC2)CC1 (stereo not given) — higher, 1.03
- CCOC(=O)c1c(/N=C/C2C(=O)CC(C)(C)CC2=O)sc(C)c1C — lower, -0.243
- COc1ccc(C2c3c(oc4ccccc4c3=O)C(=O)N2Cc2ccncc2)cc1OC (stereo not given) — lower, -0.203
- CCN(CC)CCCNC(=O)c1cc(-c2ccc(O)cc2)on1 — higher, 0.686
- C=C(C)CSc1nc(N)c(C#N)c(-c2ccc(C)cc2)c1C#N — lower, -0.338
- COC(=O)c1c(NC(=O)CSc2nnc(CNc3ccc(Cl)cc3)o2)sc(C)c1C — lower, 0.279
- CCCNC(=O)c1ccc(OC)cc1OC — lower, -0.218
- O=C(CN1CCN(c2ccccc2F)CC1)Nc1ccc2c(c1)CCC2 — lower, 0.206
- Cc1ccc(-c2n[nH]c(=S)n2C)cc1 — higher, 0.774
- C=C(c1ccc(OC)cc1)c1ccc(OC)cc1 — higher, 0.871
- Cc1ccc(C)c(S(=O)(=O)NCCCn2ccnc2)c1 — lower, -0.00334
- Cc1ccc(OCC(=O)NNC(=O)c2ccoc2C)c(Br)c1 — higher, 0.768
- CCOC(=O)CSc1c(-c2ccc(Cl)cc2)[nH]c2ccccc12 — lower, 0.0738
- CCC(=O)Nc1ccc(NC(=O)CSc2nnnn2-c2cccnc2)cc1C — lower, 0.513
- CC(=O)c1cccc(NS(=O)(=O)c2ccc(N/C=C\C(=O)c3ccc(C)cc3)cc2)c1 — lower, -0.19
- CC(C)C(=O)Nc1ccc(C(=O)NNC(=S)NC(=O)c2cccs2)cc1 — lower, -0.129
- CCn1c(SCC(=O)N2CCCC(C)C2)nnc1-c1ccc(S(=O)(=O)N2CCN(C)CC2)cc1 (stereo not given) — lower, -0.338
- O=C(c1ccc(C(=O)N2CCOCC2)s1)N1CCOCC1 — lower, -0.597
- CC1=CC(C)(C)N(C(=O)CSc2nnc(-c3ccc(C)cc3)o2)c2ccc(C)cc21 — lower, -0.223
- Clc1ccc(-c2nnc(-c3ccccc3)c(N3CCSCC3)n2)cc1 — lower, -0.125
- CCOC(=O)N1CCN(c2ccc(C(=O)c3cccc(F)c3)cc2)CC1 — lower, 0.406
- Cc1ccc(CSCC(=O)NN=C2CCN(C)CC2)cc1 — lower, -0.00381
- Cc1ccccc1OCc1nc(-c2ccc(NC(=O)c3ccco3)cc2)no1 — lower, 0.102
- CCCn1nc(NC(=O)c2ccccn2)c2cc3cc(C)ccc3nc21 — lower, -0.118
- CC(C)OP(=O)(c1ccc(N(C)C)cc1)C(O)c1c(Cl)cccc1Cl (stereo not given) — lower, 0.0683
- Cc1ccc(Cn2cc(S(=O)(=O)c3ccc(C(C)C)cc3)c(=O)c3cc4c(cc32)OCO4)cc1 — lower, -0.14
- N#CC1=C(N)N(c2ccccc2)C2=C(C(=O)CCC2)C1c1ccccc1 (stereo not given) — lower, -0.829
- Cc1cc(C(=O)Nn2cnnc2)cs1 — lower, -0.0967
- COC(=O)Nc1ccc(S(=O)(=O)N2CCCC(C(=O)Nc3cccnc3)C2)cc1 (stereo not given) — lower, -0.145
- CNc1nc(Sc2ccccc2)cc(C(F)(F)F)n1 — lower, -0.198
- Cc1cnc(-c2nnc(N(C)C(=O)C3CCOC3)s2)cn1 (stereo not given) — lower, -0.337
- CNC(=O)c1csc(-c2ccccc2)n1 — lower, -0.0403
- O=C(N/N=C\c1ccc(CNS(=O)(=O)c2ccc(Cl)cc2)o1)C(=O)Nc1ccc(Oc2ccccc2)cc1 — lower, -0.00241
- CCOc1ccc(NC(=O)CSc2nnc(COc3c(C)cccc3C)o2)cc1 — lower, -0.0696
- CCC(C)(C)NC(=O)c1ccc(Br)o1 — lower, -0.122
- COc1ccc(C(CC(=O)Nc2cc([N+](=O)[O-])ccc2OC)c2ccccc2)cc1 (stereo not given) — lower, -0.424
- O=C(Nc1ccccc1)OC1C2CCC1C(N1CCCCC1)CC2 (stereo not given) — higher, 0.741
- Cc1noc(C)c1S(=O)(=O)Nc1ccc(C(=O)NCc2ccccc2)cc1 — lower, 0.00682
- COc1cc(C=O)ccc1OCCCOc1ccc([N+](=O)[O-])cc1 — lower, -0.12
- COc1cccc(NC(=O)C2CC(=O)n3cnnc3S2)c1 (stereo not given) — higher, 0.794
- COC(=O)Nc1ccc(S(=O)(=O)n2cnc3ccccc32)cc1 — higher, 1.02
- CC1(C)CC(=O)C(C=NCC2CCN(C(=O)Nc3ccc(Cl)c(Cl)c3)CC2)=C(O)C1 — lower, -0.0391
- CC1(C)Cc2c(sc3ncnc(N)c23)CO1 — lower, 0.0601
- O=C1c2ccsc2SCCN1Cc1ccc(Cl)cc1 — lower, -0.992
- Cc1ccc(C(C2=C(O)CC(C)(C)CC2=O)C2C(=O)CC(C)(C)CC2=O)s1 (stereo not given) — lower, -0.265
- CC(=O)c1c(C)[nH]c(C(=O)COC(=O)c2ccc3c(=O)n4c(nc3c2)CCC4)c1C — lower, 0.28
